Test results taken from PMC6602471.
This is one part of the list. At the low end of the ranking, values are background and their order means little.

biological target: T1, ELK1 (UniProt P19419); test: custom PBM; conditions: custom protein-binding microarray; buffer, salt, pH and temperature not stated; high values mean tight binding; double strand, one strand shown
T1 sequence: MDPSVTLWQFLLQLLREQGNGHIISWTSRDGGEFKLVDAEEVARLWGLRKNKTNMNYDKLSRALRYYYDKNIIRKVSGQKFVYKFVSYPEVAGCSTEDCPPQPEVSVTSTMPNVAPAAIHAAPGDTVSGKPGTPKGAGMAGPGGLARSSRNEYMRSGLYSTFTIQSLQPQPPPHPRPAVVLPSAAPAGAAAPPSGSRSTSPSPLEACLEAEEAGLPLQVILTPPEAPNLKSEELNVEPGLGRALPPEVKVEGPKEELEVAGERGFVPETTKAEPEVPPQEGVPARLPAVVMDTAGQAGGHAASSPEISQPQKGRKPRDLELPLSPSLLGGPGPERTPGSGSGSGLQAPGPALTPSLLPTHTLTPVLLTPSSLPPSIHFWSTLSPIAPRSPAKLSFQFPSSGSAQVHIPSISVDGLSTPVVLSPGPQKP

| Sequence | binding signal (log fluorescence intensity) |
| --- | --- |
| CGGAAGTGTCGGAAACGTCGGATATCCGGTTCTTCTGTCTTGATTCGCTTGACGCTGCTG | 13.5 |
| TAAAGGGAAGACGTTTGTGGTAGTTCCGGGTATTAAGTCTTGATTCGCTTGACGCTGCTG | 11 |
| CACAAATTTTACAGTAATGTAGCACGCGTAACTCCTGTCTTGATTCGCTTGACGCTGCTG | 8.89 |
| CAGCATAGGACTTCTTCCCTGAAGCAATTGATACCCGTCTTGATTCGCTTGACGCTGCTG | 8.91 |
| CAGCATAGGACTTCTTCCCTGAACCAATTGATAACCGTCTTGATTCGCTTGACGCTGCTG | 8.89 |
| GCTGCTGCGGTGCATACCCCAACGGATGTGACCCCGGTCTTGATTCGCTTGACGCTGCTG | 9.21 |
| GAGTATAGGATCCCATCCAACACACGTGTTAAAATGGTCTTGATTCGCTTGACGCTGCTG | 9.01 |
| CTGGGACTTGACCCAACTCTGCCACGTGCGTCGTTTGTCTTGATTCGCTTGACGCTGCTG | 8.78 |
| GGAAAAAGGCCCGGGGTAACACCGGAAGTGGGCTTAGTCTTGATTCGCTTGACGCTGCTG | 11.8 |
| TGTCGGGTAAGGGAATGTAGATCACGTGAATGAAGAGTCTTGATTCGCTTGACGCTGCTG | 9.1 |
| TGTCGGGTAAGGGAATGTAGATCACGTTAATGAAAAGTCTTGATTCGCTTGACGCTGCTG | 8.78 |
| CAGCATAGGACTTCTTCCCTGAAACAATTGATAACCGTCTTGATTCGCTTGACGCTGCTG | 8.97 |
| CGGAAGTGTCGTAAACGTAGGATATCCGGTTCTTCTGTCTTGATTCGCTTGACGCTGCTG | 11.8 |
| TTGTATAGGATCCCATCCAACACACGTGTTAAAATGGTCTTGATTCGCTTGACGCTGCTG | 8.83 |
| CGGAAGTGTCGTAAACGTCGGCTATCCGGTTCTTCTGTCTTGATTCGCTTGACGCTGCTG | 9.69 |
| CACAATCTTTACAGTAATGTAGCACGCGTAACTCCTGTCTTGATTCGCTTGACGCTGCTG | 8.76 |
| GCTGCTGCGGGGCATACCCCACCGGATGTGACCCCGGTCTTGATTCGCTTGACGCTGCTG | 10.3 |
| CAGCATAGGACTTCTTCCCTGAAGCAATTGAAAACCGTCTTGATTCGCTTGACGCTGCTG | 8.98 |
| CTGGCACTTGACCCAACTCTGCCACGTGGGTCGTTTGTCTTGATTCGCTTGACGCTGCTG | 8.93 |
| CACAATTTTTACAGTAATCTAGCACGCGTAACTCCTGTCTTGATTCGCTTGACGCTGCTG | 8.92 |
| TCCGGCTACCAGCTTCACCCACTTCAGGCCTTGTAGGTCTTGATTCGCTTGACGCTGCTG | 8.87 |

| Sequence | binding signal (log fluorescence intensity) |
| --- | --- |
| CTGGGACTTGACCCAACTCTGCCACATGGGTCGTTTGTCTTGATTCGCTTGACGCTGCTG | 8.95 |
| TCCGGTTACCAGCTCCACCCACTTCAGGCCTTGTAGGTCTTGATTCGCTTGACGCTGCTG | 8.91 |
| TACTGACTTATATATGCGAATGCACGTGAATAGACCGTCTTGATTCGCTTGACGCTGCTG | 8.85 |
| TAATGGGAAGACGGTTGTGGTAGTTCCGGGTATTAAGTCTTGATTCGCTTGACGCTGCTG | 11.2 |
| CAGCATAGGACTTCTTCCCTGAAGCAGTTGATAACCGTCTTGATTCGCTTGACGCTGCTG | 8.98 |
| TACTGACTTATATATGCGAATGCACATGAATGGACCGTCTTGATTCGCTTGACGCTGCTG | 8.96 |
| TAAAGGGAAGACGGTTGTGGTAGTTCCGCGTATTAAGTCTTGATTCGCTTGACGCTGCTG | 9.44 |
| CACAATTTTTACAGTAATGTAGCACGCGTACCTCCTGTCTTGATTCGCTTGACGCTGCTG | 8.78 |
| GGAAAAAGGCCCAGGGTAACACCGGAGGTGGGCTTAGTCTTGATTCGCTTGACGCTGCTG | 9.1 |
| GATTAATTTCTGTCCTTATTCGCACGTGCCATAACAGTCTTGATTCGCTTGACGCTGCTG | 8.82 |
| CACAATTTTTACAGTAATGTAGCACGCGCAACTCCTGTCTTGATTCGCTTGACGCTGCTG | 8.83 |
| GCAAAAAGGCCCAGGGTAACACCGGAAGTGGGCTTAGTCTTGATTCGCTTGACGCTGCTG | 11 |
| TCCGGCTACCAGCTCCACCCACTTCAGGCGTTGTAGGTCTTGATTCGCTTGACGCTGCTG | 8.92 |
| GATTAATTTCTGCCCTTATTCGCAAGTGCCATAACAGTCTTGATTCGCTTGACGCTGCTG | 8.87 |
| AATTAATTTCTGCCCTTATTCGCACGTGCCATAACAGTCTTGATTCGCTTGACGCTGCTG | 8.87 |
| GTGTATAGGATCCCATCCAACACACGTGTTAAAATCGTCTTGATTCGCTTGACGCTGCTG | 8.88 |
| CAGGATAGGACTTCTTCCCTGAAGCAATTGATAACCGTCTTGATTCGCTTGACGCTGCTG | 8.78 |
| GGGAAGTGTCGTAAACGTCGGATATCCGGTTCTTCTGTCTTGATTCGCTTGACGCTGCTG | 12.6 |
| TAAAGGGAAGACGGTTGTGGTCGTTCCGGGTATTAAGTCTTGATTCGCTTGACGCTGCTG | 9.83 |
| CAGCATAGGACTTCTTCCCTGAAGCAATTGATGACCGTCTTGATTCGCTTGACGCTGCTG | 8.87 |
| CAGCATAGAACTTCTTCCCTGAAGCAATTGATAACCGTCTTGATTCGCTTGACGCTGCTG | 8.83 |

| Sequence | binding signal (log fluorescence intensity) |
| --- | --- |
| TAAAGGGAAGACGGTTGTGGTAGTTCCGGGTATGAAGTCTTGATTCGCTTGACGCTGCTG | 11.4 |
| GGAAAAAGGCCCACGGTAACACCGGAAGTGGGCTTAGTCTTGATTCGCTTGACGCTGCTG | 11.2 |
| TCAGGCTACCAGCTCCACCCACTTCAGGCCTTGTAGGTCTTGATTCGCTTGACGCTGCTG | 8.73 |
| CACAATTTTTACAGTAATGTAGCACGCGTAGCTCCTGTCTTGATTCGCTTGACGCTGCTG | 9.06 |
| GTGTCTAGGATCCCATCCAACACACGTGTTAAAATGGTCTTGATTCGCTTGACGCTGCTG | 8.94 |
| GCTGCAGCGGTGCATACCCCACCGGATGTGACCCCGGTCTTGATTCGCTTGACGCTGCTG | 10.1 |
| GCTGCTGCGGTGCATACACCACCGGATGTGACCCCGGTCTTGATTCGCTTGACGCTGCTG | 10.2 |
| TCCGGCTACCAGCTCCACCCTCTTCAGGCCTTGTAGGTCTTGATTCGCTTGACGCTGCTG | 9 |
| GCTGCTGCGGTGAATACCCCACCGGATGTGACCCCGGTCTTGATTCGCTTGACGCTGCTG | 10.4 |
| GGAAAAAGGCCCAGGGTAACACCGGAAATGGGCTTAGTCTTGATTCGCTTGACGCTGCTG | 10.3 |
| TCCGGCTTCCAGCTCCACCCACTTCAGGCCTTGTAGGTCTTGATTCGCTTGACGCTGCTG | 9.08 |
| CAACATAGGACTTCTTCCCTGAAGCAATTGATAACCGTCTTGATTCGCTTGACGCTGCTG | 8.8 |
| GCTGCTCCGGTGCATACCCCACCGGATGTGACCCCGGTCTTGATTCGCTTGACGCTGCTG | 12.3 |
| TGTCGAGTAAGGGAATGTAGATCACGTGAATGAAAAGTCTTGATTCGCTTGACGCTGCTG | 8.95 |
| TCCGGCTACCAGCTCCGCCCACTTCAGGCCTTGTAGGTCTTGATTCGCTTGACGCTGCTG | 8.79 |
| GGAAAAAGGCCCAGGTTAACACCGGAAGTGGGCTTAGTCTTGATTCGCTTGACGCTGCTG | 11.1 |
| CACAATTTTTACAGTAATGTAGAACGCGTAACTCCTGTCTTGATTCGCTTGACGCTGCTG | 8.89 |
| GATTAATTTCTGCCCTTATTCGCACGTGCCAAAACAGTCTTGATTCGCTTGACGCTGCTG | 8.96 |
| GGAAAAAGGCCGAGGGTAACACCGGAAGTGGGCTTAGTCTTGATTCGCTTGACGCTGCTG | 10.9 |
| TGTCGGGTAAGGGAATGTAGAGCACGTGAATGAAAAGTCTTGATTCGCTTGACGCTGCTG | 8.88 |
| TGTCGGGTAAGGGAATGTAGATCACGAGAATGAAAAGTCTTGATTCGCTTGACGCTGCTG | 8.83 |

| Sequence | binding signal (log fluorescence intensity) |
| --- | --- |
| TGTCGGTTAAGGGAATGTAGATCACGTGAATGAAAAGTCTTGATTCGCTTGACGCTGCTG | 8.82 |
| TGTCGGGAAAGGGAATGTAGATCACGTGAATGAAAAGTCTTGATTCGCTTGACGCTGCTG | 8.89 |
| GATTAATTTCTGCCCTTATTCCCACGTGCCATAACAGTCTTGATTCGCTTGACGCTGCTG | 8.94 |
| TACTGATTTATATATGCGAATGCACATGAATAGACCGTCTTGATTCGCTTGACGCTGCTG | 8.91 |
| TCCGGCTACCAGCTCCACCCACTTCAGGCCTTATAGGTCTTGATTCGCTTGACGCTGCTG | 8.86 |
| GGTCGGGTAAGGGAATGTAGATCACGTGAATGAAAAGTCTTGATTCGCTTGACGCTGCTG | 8.83 |
| TCCGGCTACCAGCTCCACCCACTTCAGGACTTGTAGGTCTTGATTCGCTTGACGCTGCTG | 8.95 |
| GACTAATTTCTGCCCTTATTCGCACGTGCCATAACAGTCTTGATTCGCTTGACGCTGCTG | 8.95 |
| CACAATTTTTACAGTACTGTAGCACGCGTAACTCCTGTCTTGATTCGCTTGACGCTGCTG | 8.94 |
| TGTGGGGTAAGGGAATGTAGATCACGTGAATGAAAAGTCTTGATTCGCTTGACGCTGCTG | 8.71 |
| CACAATTTTTACAGTAATGTAGCACGCGTAACTCCGGTCTTGATTCGCTTGACGCTGCTG | 8.72 |
| TGTCGGGTAAGAGAATGTAGATCACGTGAATGAAAAGTCTTGATTCGCTTGACGCTGCTG | 8.77 |
| CAGCATGGGACTTCTTCCCTGAAGCAATTGATAACCGTCTTGATTCGCTTGACGCTGCTG | 8.92 |
| CACAATTTTTACAGTAATGTAGCATGCGTAACTCCTGTCTTGATTCGCTTGACGCTGCTG | 8.94 |
| CAGCATAGGACTTCTTCCCTGAAGTAATTGATAACCGTCTTGATTCGCTTGACGCTGCTG | 8.66 |
| GATTAATTTCTGCCCTTATTCGCACGTGCCACAACAGTCTTGATTCGCTTGACGCTGCTG | 8.75 |
| TAAAGGGAAGAAGGTTGTGGTAGTTCCGGGTATTAAGTCTTGATTCGCTTGACGCTGCTG | 11.2 |
| CACAATTTTTAAAGTAATGTAGCACGCGTAACTCCTGTCTTGATTCGCTTGACGCTGCTG | 8.83 |
